# Reference: article PMC12040169 (PLOS Biology, 2025)
# The list shows a part of the results.
# Tested on: T1, C. trachomatis L2/434/Bu expressing GFP (CTL2-GFP)
# T1 construct: L2/434/Bu GFP intracellular growth in HeLa cells
# Set-up: species or system HeLa; C. trachomatis total inclusion area by high-content imaging, normalised to DMSO
# Settings: total inclusion area; 28.5 h, 10 µM; inhibitor
# In short: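 Bulk GFP and resorufin signals were read first. Wells were then fixed, stained with Hoechst and imaged to detect GFP inclusions and host nuclei. MICs followed the previously described calculation.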
row,Structure (SMILES),% of control remaining
1,COc1ccc(C(C)C)cc1-c1cn2ccnc2c(Nc2cccc(OC(F)(F)C(F)F)c2)n1 [CBK038049],125.955
2,O=C1OC[C@@H](c2ccccc2)N1C(=O)[C@@H]1CN(Cc2ccccc2)C[C@H]1c1cc2ccccc2o1 [CBK022599C],9.673
3,Cn1cc(C2CCCCN2C(=O)c2cccc(C#N)c2)cn1 (centres unmarked) [CBK304611],32.8049
4,N#Cc1cccc(CN2C[C@H](O)C[C@H]2c2nc(-c3ccc4c(c3)OCO4)no2)c1 [CBK288866],87.843
5,O=S1(=O)CCC(c2nc(-c3ccc(Br)o3)no2)C1 (centres unmarked) [CBK306134],41.4105
6,CSc1ccccc1C(=O)NCCN(C)C [CBK269757],84.9906
7,O=C(CS(=O)(=O)c1ccccc1)Nc1ccc(OCc2ccccc2)cc1 [CBK269421],91.0297
8,CN1CCN(C(=O)c2ccc(-c3nccnc3NCCc3cccnc3)cc2)CC1 [CBK036838],106.334
9,CCC1CCc2c(sc(NC(=O)c3cc(-c4ccc(C)cc4C)nc4ccccc34)c2C(=O)OC)C1 (centres unmarked) [CBK262629],109.62
10,O=C(O)c1cccc(NC(=O)c2cnc(-c3cccc(C(F)(F)F)c3)c(-c3cccc(CO)c3)c2)c1 [CBK037565],101.342
11,O=C(Nc1cccc(-c2csnn2)c1)c1ccco1 [CBK270255],85.4825
12,O=C1N/C(=N/c2ccccc2Cl)S/C1=C/c1ccc(-c2ccccc2Cl)o1 [CBK067752],77.6111
13,N=C(N)SCP(=O)(c1ccccc1)c1ccccc1 [CBK260990],82.0687
14,Cc1cccc(C=C(Cl)c2nc3sc(C(=O)O)c(C)c3c(=O)[nH]2)c1 [CBK295626],87.7847
15,O=C(COc1cccnc1)N[C@H]1C2CCCCC2[C@@H]1c1ccccc1 (some centres unmarked) [CBK282951],106.965
16,NC(=O)NC(CC(=O)N1CCCC1c1ccncc1)c1cccc(Br)c1 (centres unmarked) [CBK306345],55.7097
17,COc1cccc2cc(C(=O)C3=C(O)C(=O)N(CCN4CCOCC4)C3c3cccs3)oc12 (centres unmarked) [CBK269433],110.191
18,Cc1sc2ncn(CC(=O)NCc3nnc4n3CCC4)c(=O)c2c1C [CBK305654],59.7462
19,O=C(NCCc1ccccc1)c1cc(Br)cnc1NCCCn1ccnc1 [CBK076421],88.7624
20,CN1CCN(c2nccnc2-c2ccoc2)CC1 [CBK088834],125.58
21,Cc1ccc2c(N)c(C(=O)c3cccs3)sc2n1 [CBK115369],67.7978
22,Clc1ccc(-c2c[nH]c([C@@H]3COCCN3Cc3c[nH]cn3)n2)cc1 [CBK289316],108.823
23,CCCCNC(=O)N(O)C1N(C)C(=S)SC1(C)C (centres unmarked) [CBK006880],123.003
24,CNCC1CCCN(C(=O)c2ccc(Oc3cccnc3)cc2)C1 (centres unmarked) [CBK304479],71.3233
25,COc1ccc(Oc2nccnc2N2CCN(CCCC#N)CC2)cc1OC [CBK083056T],95.17

row,Structure (SMILES),% of control remaining
1,COc1ccccc1-c1cccc(C2CCCN(C(=O)CCCc3ccccc3)C2)n1 (centres unmarked) [CBK286217],106.92
2,CCn1c(CC2CCN(C(=O)c3ccc(C)c(C)c3)CC2)nn(C)c1=O [CBK307133],74.9368
3,Cc1ccc(OCCn2cncc2-c2cn(C)nc2C)cc1 [CBK281626],98.314
4,Cc1ccc(CN2C(=O)CSC2c2cn(-c3ccccc3)nc2-c2ccccc2)cc1 (centres unmarked) [CBK263678],56.9147
5,O=C(Nc1ccccc1-c1nc2ccccc2s1)c1sc2cc(Cl)ccc2c1Cl [CBK268642],111.324
6,CC(=O)NC(c1ccccn1)C1CCCN(C(=O)C2CC2)C1 (centres unmarked) [CBK285040],82.19
7,Cc1sc2nc(C)n(C3CCNCC3)c(=O)c2c1C [CBK282421],90.3361
8,Cc1nc(CNc2ccc3nnc(C(F)(F)F)n3n2)cs1 [CBK305674],37.723
9,Cc1nc(SCC(=O)NC(C)c2cccnc2)oc1C (centres unmarked) [CBK282198],93.9712
10,O=C(CN1CCC[C@@H]1CN1CCCC1)Nc1ncccn1 [CBK149107],104.114
11,O=C(CC1CCN(C(=O)c2ccc3nsnc3c2)CC1)N1CCN(c2ccccc2)CC1 [CBK286266],115.824
12,COc1ccccc1N1CCN(c2cc(N3CCNCC3)ccc2[N+](=O)[O-])CC1 [CBK293931],88.9018
13,CC(=O)Nc1ccc(S(=O)(=O)NCC#N)cc1Cl [CBK045102],90.122
14,Cc1ccc(OCC(=O)N2CCN(S(=O)(=O)c3ccccc3[N+](=O)[O-])CC2)cc1 [CBK264260],70.4576
15,O=[N+]([O-])c1ccc(N2CCCCC2)s1 [CBK016566],98.8394
16,CC(NC(=O)c1ccccc1Cn1cccn1)c1ccccn1 (centres unmarked) [CBK281374],100.85
17,CN(C)c1ccc(CC(=O)Nc2cnc(-c3ccc(F)c(Cl)c3)c(-c3ccco3)n2)cc1 [CBK037581],124.289
18,Cc1cc2ccccc2n2c(=O)n(CC(=O)N(C(C)C)C(C)C)nc12 [CBK283885],94.8985
19,Cc1nnc(NS(=O)(=O)c2ccc(OC(F)(F)F)cc2)s1 [CBK026673],102.828
20,COc1ccc(C(=O)C2=C(O)C(=O)N(Cc3cccnc3)C2c2cccc([N+](=O)[O-])c2)cc1 (centres unmarked) [CBK264661],102.864
21,Cc1ccccc1C(NC(=O)C1CCN(C(=O)NCc2ccccc2)CC1)c1ncccc1C (centres unmarked) [CBK060398],99.8585
22,CC(C)c1ccc(NC(=O)NC(=O)C2CCN(CCOc3ccc4ccccc4c3)CC2)c(C(C)C)c1 [CBK034883],95.5403
23,O=C(N/N=C\c1ccc(OCc2ccccc2)cc1)C1COc2cc3ccccc3cc2O1 (centres unmarked) [CBK262764],110.825
24,CCOC(=O)N1CCC(NS(=O)(=O)/C=C/c2ccccc2)CC1 [CBK045458],94.1592
25,COc1ccc([C@@H]2CCN(C(=O)c3cc(F)cc(F)c3)C[C@H]2O)cc1 [CBK283757],72.4862
